Paper PMC4336329 (PLoS ONE, 2015)
The campaign covered roughly 310,000 compounds. About 14,000 (4.5%) showed an effect of 50% or more. Effects have a minus sign here. This is one part of the list.
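Further: peak tail current of the secondary pulse compared with the same well before compound.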

The molecules below were run against human ether-à-go-go-related gene (hERG) potassium channel (human, UniProt Q12809) (assay: primary screen, population patch clamp on CHO cells stably expressing hERG).
Sequence of human ether-à-go-go-related gene (hERG) potassium channel (Q12809 whole entry, looked up): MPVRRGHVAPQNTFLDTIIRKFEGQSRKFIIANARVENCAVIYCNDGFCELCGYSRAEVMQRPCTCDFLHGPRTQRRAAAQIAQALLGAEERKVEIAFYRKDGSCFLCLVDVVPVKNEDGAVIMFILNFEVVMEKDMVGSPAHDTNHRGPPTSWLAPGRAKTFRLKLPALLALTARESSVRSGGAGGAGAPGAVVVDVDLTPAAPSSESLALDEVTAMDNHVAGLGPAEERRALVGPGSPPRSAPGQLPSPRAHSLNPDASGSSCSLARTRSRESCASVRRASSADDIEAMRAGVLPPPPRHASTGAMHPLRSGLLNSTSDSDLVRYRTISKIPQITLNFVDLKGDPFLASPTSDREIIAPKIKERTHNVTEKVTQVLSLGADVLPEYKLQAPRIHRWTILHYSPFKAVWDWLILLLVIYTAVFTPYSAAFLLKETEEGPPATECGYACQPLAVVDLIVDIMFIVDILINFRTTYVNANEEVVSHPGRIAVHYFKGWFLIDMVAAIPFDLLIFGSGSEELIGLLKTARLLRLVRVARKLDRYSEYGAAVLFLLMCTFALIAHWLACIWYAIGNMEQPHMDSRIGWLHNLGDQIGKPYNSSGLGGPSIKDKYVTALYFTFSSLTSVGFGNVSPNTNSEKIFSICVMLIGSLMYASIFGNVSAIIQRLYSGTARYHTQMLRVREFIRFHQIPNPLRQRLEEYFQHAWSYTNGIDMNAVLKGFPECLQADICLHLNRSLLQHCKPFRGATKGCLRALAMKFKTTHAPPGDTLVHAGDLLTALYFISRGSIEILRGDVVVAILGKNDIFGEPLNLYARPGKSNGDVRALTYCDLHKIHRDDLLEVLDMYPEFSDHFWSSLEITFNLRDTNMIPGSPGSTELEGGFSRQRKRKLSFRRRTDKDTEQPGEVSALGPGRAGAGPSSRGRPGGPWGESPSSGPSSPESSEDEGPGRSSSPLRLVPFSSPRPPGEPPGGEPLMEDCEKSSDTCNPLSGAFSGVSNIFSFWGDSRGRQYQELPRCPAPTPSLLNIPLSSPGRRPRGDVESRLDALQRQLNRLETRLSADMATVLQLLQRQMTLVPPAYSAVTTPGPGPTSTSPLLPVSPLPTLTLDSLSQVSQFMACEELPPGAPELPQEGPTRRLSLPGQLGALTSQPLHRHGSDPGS
With `CC(C)n1nnnc1SCC(=O)c1c(N)n(C2CC2)c(=O)[nH]c1=O` the “hERG current change (%, negative = inhibition) at 10uM” value was 15.9%.
`Cc1ccc(SCCNC(=O)C(CO)(CO)CO)cc1` was tested, and the “hERG current change (%, negative = inhibition) at 10uM” value was -0.286%.
In the case of `O=C(CNc1ccccc1)N/N=C/c1c(O)ccc2ccccc12`, the “hERG current change (%, negative = inhibition) at 10uM” value is reported as 19.3%.
`COc1ccc(C2Nc3ccccc3C(=O)N2NC(C)=O)c(OC)c1` (stereo not shown) was tested, and the “hERG current change (%, negative = inhibition) at 10uM” value was 14.3%.
With `Cc1cc(C)[n+](-c2ccc(Oc3ccccc3)c(S(=O)(=O)[O-])c2)[nH]1` the “hERG current change (%, negative = inhibition) at 10uM” value was 13.6%.
In the case of `O=S1(=O)CCOC[C@H](CC2CCCCC2)N1Cc1ccccc1Br`, the “hERG current change (%, negative = inhibition) at 10uM” value is reported as 4.87%.
For `CSc1ccc(C(=O)C2CCCN(C(=O)c3ccc(C)nc3)C2)cc1` (stereo not shown), the “hERG current change (%, negative = inhibition) at 10uM” value was -22.4%.
In the case of `CC1CCc2[nH]c3ccc(C(=O)O)cc3c2C1` (stereo not shown), the “hERG current change (%, negative = inhibition) at 10uM” value is reported as 28%.
With `CCN(CC)S(=O)(=O)c1ccc(Cl)c(C(=O)OC)c1` the “hERG current change (%, negative = inhibition) at 10uM” value was -10.7%.
With `S=C(NCC1COc2ccccc2O1)Nc1ccc(Br)cc1` (stereo not shown) the “hERG current change (%, negative = inhibition) at 10uM” value was -2.95%.
With `O=C(COc1ccc2ccc(=O)oc2c1)OCc1ccccc1` the “hERG current change (%, negative = inhibition) at 10uM” value was 5.7%.
For `CCCCn1c(SCC(=O)c2ccc3c(c2)OCCO3)nnc1-c1ccoc1C`, the “hERG current change (%, negative = inhibition) at 10uM” value was -15.4%.
For `OC1CCN(c2ncnc3nc[nH]c23)CC1`, the “hERG current change (%, negative = inhibition) at 10uM” value was -0.22%.
In the case of `Cc1cc(C(=O)c2cccs2)c(N)s1`, the “hERG current change (%, negative = inhibition) at 10uM” value is reported as -4.17%.
With `Cc1nc2ccccc2c(=O)n1NC(=O)c1cncc(Br)c1` the “hERG current change (%, negative = inhibition) at 10uM” value was 14.9%.
In the case of `O=C(CCNS(=O)(=O)c1cccc(C(F)(F)F)c1)NC1CC1`, the “hERG current change (%, negative = inhibition) at 10uM” value is reported as -15%.
With `COc1ccccc1Nc1nc2ccc(C)cc2n2cnnc12` the “hERG current change (%, negative = inhibition) at 10uM” value was 4.89%.
`CCCCNc1c(C(=O)OCC)c(C)nc2c1cnn2CC` was tested, and the “hERG current change (%, negative = inhibition) at 10uM” value was -12.8%.
In the case of `CC(C)C(C(=O)Nc1ccc(S(N)(=O)=O)cc1)N1C(=O)c2ccccc2C1=O` (stereo not shown), the “hERG current change (%, negative = inhibition) at 10uM” value is reported as 21.6%.
In the case of `COC(=O)CSc1nnc([C@H](CC(C)C)NC(=O)OC(C)(C)C)o1`, the “hERG current change (%, negative = inhibition) at 10uM” value is reported as -8.19%.
In the case of `CCOc1cc(/C=C/C(=O)NCCc2ccc(S(N)(=O)=O)cc2)ccc1OCC(C)C`, the “hERG current change (%, negative = inhibition) at 10uM” value is reported as -5%.
With `Cc1ccccc1-c1nsc(SCC(=O)NCc2ccc3c(c2)OCO3)n1` the “hERG current change (%, negative = inhibition) at 10uM” value was 0.529%.
`COc1cccc(C(=O)NC2=NCCS2)c1` was tested, and the “hERG current change (%, negative = inhibition) at 10uM” value was 16.9%.
In the case of `Brc1ccc2nc3c(n2c1)CCCC3`, the “hERG current change (%, negative = inhibition) at 10uM” value is reported as -30.6%.
In the case of `CCc1ccc2c(c1)c(N=NC1=NC(=O)CS1)c(O)n2C`, the “hERG current change (%, negative = inhibition) at 10uM” value is reported as 0.556%.
For `CCn1cc(CNC(=O)/C=C/c2cnn(C)c2)c(C)n1`, the “hERG current change (%, negative = inhibition) at 10uM” value was 0.241%.
For `COc1ccc(CNC(=O)[C@@H]2CC=C[C@@H]3CCN(Cc4ccc(Cl)c(Cl)c4)C(=O)[C@@H]32)cc1`, the “hERG current change (%, negative = inhibition) at 10uM” value was -8.85%.
For `CCOC(=O)c1sc(-c2cccs2)nc1C`, the “hERG current change (%, negative = inhibition) at 10uM” value was -1.5%.
With `O=C(/C=C/c1ccco1)Nc1ccccc1N1CCCC1` the “hERG current change (%, negative = inhibition) at 10uM” value was -20.5%.
With `CCOC(=O)c1cc(C#N)c(N2CCNCC2)nc1C(F)(F)F` the “hERG current change (%, negative = inhibition) at 10uM” value was -12.3%.
`CCOC(=O)C1=C(O)/C(=C/N(C)C)N=C1C` was tested, and the “hERG current change (%, negative = inhibition) at 10uM” value was 2.56%.
`CCc1ccccc1N(C(=O)c1snc(C(N)=O)c1N)C(C(=O)NCC1CCCO1)c1ccc(C)o1` (stereo not shown) was tested, and the “hERG current change (%, negative = inhibition) at 10uM” value was -21.9%.
In the case of `CCOC(=O)c1c(C)n(C)c2cc(CN(C)C)c(O)c(S(=O)(=O)c3ccccc3)c12.Cl`, the “hERG current change (%, negative = inhibition) at 10uM” value is reported as -36.3%.
In the case of `O=C(CC1C(=O)NCCN1Cc1cccc(F)c1)NC1CCCCCC1` (stereo not shown), the “hERG current change (%, negative = inhibition) at 10uM” value is reported as -8.34%.
In the case of `O=C(Nc1ccccc1)C1CCCN(S(=O)(=O)c2ccc(-n3cnnn3)cc2)C1` (stereo not shown), the “hERG current change (%, negative = inhibition) at 10uM” value is reported as -15.2%.
With `O=C1c2ccc([N+](=O)[O-])cc2C(=O)N1c1ccc([N+](=O)[O-])cn1` the “hERG current change (%, negative = inhibition) at 10uM” value was 14.5%.
With `COc1ccccc1N(CC(=O)NC1CCCCC1)S(=O)(=O)c1ccccc1` the “hERG current change (%, negative = inhibition) at 10uM” value was -7.54%.
`O=C(Nc1nc2ccc(F)cc2s1)Oc1ccccc1` was tested, and the “hERG current change (%, negative = inhibition) at 10uM” value was 21.9%.
In the case of `CCCNCC1C(Oc2ccc(Cl)cc2Cl)C(=O)N1c1cccc(C)c1C.Cl` (stereo not shown), the “hERG current change (%, negative = inhibition) at 10uM” value is reported as 8.48%.
For `O=C(c1cccs1)N(c1ccc(Br)cc1)C1C=CS(=O)(=O)C1` (stereo not shown), the “hERG current change (%, negative = inhibition) at 10uM” value was -24.1%.
In the case of `Cc1nc(N2CCOCC2)nc2c1CCCC2`, the “hERG current change (%, negative = inhibition) at 10uM” value is reported as -4.17%.
In the case of `C=CCNC(=O)COC(=O)/C=C/c1cccs1`, the “hERG current change (%, negative = inhibition) at 10uM” value is reported as 17.4%.
In the case of `O=C(OCC1OC2OC3(CCCCC3)OC2C2OC3(CCCCC3)OC12)c1ccccc1` (stereo not shown), the “hERG current change (%, negative = inhibition) at 10uM” value is reported as 8.18%.
With `Cc1cc(C)c(S(=O)(=O)/N=C2\C=CC(=O)C(Cl)=C2)c(C)c1` the “hERG current change (%, negative = inhibition) at 10uM” value was 9.35%.
For `O=C(NCCN1CCCC(O)C1)c1cc(COc2c(F)cccc2F)on1` (stereo not shown), the “hERG current change (%, negative = inhibition) at 10uM” value was 0.136%.
In the case of `CCOC(=O)C1=C(C)N(CCCC(=O)O)C(=O)NC1c1ccccc1` (stereo not shown), the “hERG current change (%, negative = inhibition) at 10uM” value is reported as 17.8%.
